# The full ranking holds about 110,000 compounds; the median of “z-score” is about -0.1, and the highest 2% start at about 2. The list shows a part of the results.
# Biological target: Metabotropic glutamate receptor 8 (Rattus norvegicus) (UniProt P70579)
# Assay: rat mGluR8 modulators via GIRK flux, primary screen, cell-based, thallium flux, HTS (AID 488969)
# Details: HEK293 rat mGluR8, GIRK (G protein-gated inwardly rectifying potassium channel) thallium flux, FluoZin2; at 10 µM; stronger effect = higher value; submaximal glutamate (EC20) added with thallium
# UniProt P70579, sequence (P70579 whole entry, looked up): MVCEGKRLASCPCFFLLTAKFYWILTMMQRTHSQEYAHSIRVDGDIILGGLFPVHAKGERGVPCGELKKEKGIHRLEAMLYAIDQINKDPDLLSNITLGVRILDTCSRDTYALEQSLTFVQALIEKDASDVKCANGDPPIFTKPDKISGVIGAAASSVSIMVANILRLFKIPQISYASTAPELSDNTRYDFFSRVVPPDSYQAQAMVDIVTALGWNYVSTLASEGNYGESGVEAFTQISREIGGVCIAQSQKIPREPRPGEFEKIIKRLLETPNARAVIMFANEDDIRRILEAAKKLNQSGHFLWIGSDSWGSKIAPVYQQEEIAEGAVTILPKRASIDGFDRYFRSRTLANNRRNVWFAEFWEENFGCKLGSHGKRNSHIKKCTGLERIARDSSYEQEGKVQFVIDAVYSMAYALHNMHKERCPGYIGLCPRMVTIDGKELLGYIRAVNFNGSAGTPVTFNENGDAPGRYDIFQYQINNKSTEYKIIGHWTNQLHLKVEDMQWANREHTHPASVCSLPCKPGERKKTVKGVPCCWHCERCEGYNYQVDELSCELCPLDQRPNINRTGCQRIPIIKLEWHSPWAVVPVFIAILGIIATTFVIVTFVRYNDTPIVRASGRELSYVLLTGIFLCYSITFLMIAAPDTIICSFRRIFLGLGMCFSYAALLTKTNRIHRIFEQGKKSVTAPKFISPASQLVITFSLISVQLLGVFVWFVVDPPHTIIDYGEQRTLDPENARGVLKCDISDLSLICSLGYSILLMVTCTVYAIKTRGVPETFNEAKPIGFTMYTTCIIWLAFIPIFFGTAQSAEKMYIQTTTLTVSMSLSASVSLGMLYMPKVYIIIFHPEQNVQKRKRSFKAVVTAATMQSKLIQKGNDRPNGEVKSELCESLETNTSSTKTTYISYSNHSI
row,Compound,z-score
1,CCN(CC)c1ccc(-n2c(C)cc(C=O)c2C)cc1,0.148
2,N#Cc1nc(Cc2ccccc2)oc1N1CCC(Cc2ccccc2)CC1,-0.0794
3,O=C(CSc1nc2nc[nH]c2c(=O)[nH]1)NC1CCCCC1,0.456
4,O=C(COc1ccc(Br)cc1)NNC(=S)NC(=O)c1ccccc1[N+](=O)[O-],-0.343
5,Cc1ccc(C)c2c1cc(C)c1nnc(SCC(=O)c3cccs3)n12,-0.212
6,COc1cccc(/C=N/Nc2ncnc3c2ncn3Cc2ccccc2)c1O,-0.371
7,Cc1[nH]c2ccccc2c1C(=O)COC(=O)C(C)C,-0.437
8,CCCn1cc(SCC(=O)NCC2CCCO2)c2ccccc21 (stereo unspecified),0.0527
9,O=c1oc(-c2ccccc2)nc2ccsc12,-1.43
10,CC(C)(C)C(=O)Nc1ccc2oc(-c3cc(F)c(F)cc3Cl)nc2c1,0.247
11,Cc1cc(C(=O)CSc2nnc(-c3ccco3)o2)c(C)n1Cc1ccco1,-0.493
12,COc1ccc(CCN2CC34C=CC(O3)C(C(=O)NCc3ccccc3)C4C2=O)cc1OC (stereo unspecified),-1.3
13,O=C(NN1C(=O)c2ccccc2NC1c1ccccn1)c1ccc([N+](=O)[O-])cc1 (stereo unspecified),-0.183
14,O=C(CC(SCCO)c1ccc2c(c1)OCO2)c1ccco1 (stereo unspecified),0.324
15,Cc1cccc(Nc2nnc(-c3ccc(C(=O)N4C[C@H]5C[C@H](C4)c4cccc(=O)n4C5)cc3)c3ccccc23)c1,-0.0469
16,N#C/C(=C/c1ccc(N2CCCC2)c([N+](=O)[O-])c1)c1nc2ccccc2[nH]1,0.0678

row,Compound,z-score
1,CC(SC1=NCCS1)C(=O)Nc1nnc(-c2ccc(Cl)cc2)s1 (stereo unspecified),-0.386
2,Fc1ccc(-c2csc3nnc(SCc4cccnc4)n23)cc1,-0.0579
3,CC1CCc2c(sc3c2C2=NS(=O)(=O)CCN2C=N3)C1 (stereo unspecified),0.913
4,C=CCNc1sc(C(=O)C(C)(C)C)c(N)c1C#N,-0.0773
5,CNc1nc(N(C)C)nc(N(C)C)n1,-0.0155
6,O=C1CCC(C(=O)NCc2cccnc2)N1 (stereo unspecified),0.133
7,O=C(O)CSc1nnc(C2COc3ccccc3O2)n1-c1ccccc1 (stereo unspecified),0.669
8,Cc1ccc(C)n1N1C(=O)/C(=C\c2ccc(Cl)cc2)SC1=S,-0.0433
9,Cc1ccc(CC(=O)N2CCOCC2)cc1,-0.184
10,O=C(Cn1nnc(-c2ccc(Cl)cc2)n1)NC1CCN(Cc2ccccc2)CC1,0.243
11,CCc1ccc(CCC(=O)Nc2ccc(S(N)(=O)=O)cc2)o1,0.191
12,COc1cccc(C(=O)N2CCN(C3CCN(Cc4ccccc4)CC3)CC2)c1,-0.193
13,Cc1c(NC2(c3nnnn3-c3ccc(Br)cc3)CCCCC2)c(=O)n(-c2ccccc2)n1C,-0.0573
14,O=C(CSC1=NCCS1)N1CCN(c2ccccc2)CC1,-0.0309
15,CCN(CC)C(=O)c1sc2nc(-c3ccc(OC)cc3)cn2c1C,0.0875

# Reference: PubChem BioAssay AID488969 (Vanderbilt High Throughput Screening Facility, 2010)
